Results published in the supplement of paper PMC3334620.
In all, about 33,000 sequences were measured (“E-score (-0.5 to 0.5)”: median about -0.035, highest 2% from about 0.35 on). The list shows a part of the results.

Target: T1, Pdr3 (UniProt P33200)
T1 sequence: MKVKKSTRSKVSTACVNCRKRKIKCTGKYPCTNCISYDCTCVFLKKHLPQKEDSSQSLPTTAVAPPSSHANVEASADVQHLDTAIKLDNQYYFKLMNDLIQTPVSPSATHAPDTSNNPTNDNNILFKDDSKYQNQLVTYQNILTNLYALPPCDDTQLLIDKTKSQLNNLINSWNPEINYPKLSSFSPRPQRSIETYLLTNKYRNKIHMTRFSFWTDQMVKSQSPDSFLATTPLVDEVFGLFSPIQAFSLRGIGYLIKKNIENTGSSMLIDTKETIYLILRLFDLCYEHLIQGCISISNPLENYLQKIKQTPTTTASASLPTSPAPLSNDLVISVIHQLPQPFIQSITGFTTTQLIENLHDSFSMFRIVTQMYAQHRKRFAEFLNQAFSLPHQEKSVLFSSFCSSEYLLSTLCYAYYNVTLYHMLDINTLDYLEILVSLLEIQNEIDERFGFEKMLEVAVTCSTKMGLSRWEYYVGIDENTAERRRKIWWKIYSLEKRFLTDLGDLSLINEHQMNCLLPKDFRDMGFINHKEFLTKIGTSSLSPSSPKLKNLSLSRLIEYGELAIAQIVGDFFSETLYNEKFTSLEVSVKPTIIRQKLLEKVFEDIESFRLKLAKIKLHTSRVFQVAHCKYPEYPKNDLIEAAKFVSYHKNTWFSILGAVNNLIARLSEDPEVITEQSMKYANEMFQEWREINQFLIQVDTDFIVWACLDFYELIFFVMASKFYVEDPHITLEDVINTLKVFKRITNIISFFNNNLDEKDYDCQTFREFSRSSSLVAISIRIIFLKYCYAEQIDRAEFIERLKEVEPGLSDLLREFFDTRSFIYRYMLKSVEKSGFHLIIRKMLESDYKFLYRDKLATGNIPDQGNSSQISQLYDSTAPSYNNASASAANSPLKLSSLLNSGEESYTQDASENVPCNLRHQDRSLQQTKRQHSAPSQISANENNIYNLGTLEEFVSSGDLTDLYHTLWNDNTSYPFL
Test: PBM E-score (8-mer binding enrichment) (E-score (-0.5 to 0.5)); higher = stronger / more preferred TF binding; most listed sequences are background and not binding sites
Conditions: protein concentration: 200 nM; construct: GST-full length
Outline: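 Yeast transcription factors carrying a GST tag, as full-length proteins or DNA-binding domains, were produced by PURExpress in vitro transcription/translation. About 100-200 nM protein was applied to universal all-10-mer Agilent arrays, double-stranded by primer extension on fresh or once-stripped slides. Bound protein was detected with fluorescent anti-GST, and scans were normalised with masliner. The Universal PBM Analysis Suite gave each ungapped eight-base word, pooled with its reverse complement, an E-score, a modified Wilcoxon-Mann-Whitney statistic.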

In order of rising “PBM E-score” value:
1. TCCATCCA  -0.305
2. ACATGCGA  -0.297
3. CACATGAG  -0.275
4. AGCTACGA  -0.272
5. AGAGAGAC  -0.267
6. GGCTCAAC  -0.247
7. AGGATAGG  -0.243
8. TAGTCTGA  -0.242
9. ACCCTAAT  -0.238
10. CAGGAGGG  -0.223
11. AAGCAGGG  -0.216
12. AAGATGTA  -0.207
13. AGGTCGAG  -0.201
14. GAGCTTGC  -0.199
15. ACAATTGG  -0.182
16. CCTAGTCC  -0.177
17. ACTACAGC  -0.174
18. AATTTCAA  -0.172
19. AGCTACAG  -0.165
20. CCCTTTTA  -0.154
21. AGTTTACA  -0.151
22. ACTTAAAC  -0.149
23. GCGAGAGA  -0.148
24. ACGTCGCA  -0.139
25. GTCCCATA  -0.137
26. TCGTCAGA  -0.134
27. CCATTCGA  -0.133
28. TAGACGCA  -0.132
29. CTCTCATC  -0.13
30. GAGTTATA  -0.129
31. ACTGGGCA  -0.128
32. CAGCACTC  -0.127
33. TATCACGA  -0.126
34. GATTTTGC  -0.123
35. ACAAACCT  -0.121
36. AGTGTAAT  -0.12
37. CTACCCCC  -0.118
38. ACAATTTG  -0.117
39. AAAGAAGC  -0.115
40. GGAGGCAA  -0.113
41. AGAGATAA  -0.11
42. CTCGTAAC  -0.108
43. CACTAAAC  -0.106
44. CATTCTCC  -0.105
45. AAGGCGGG  -0.104
46. CCCTTGCC  -0.103
47. CCTCCTTC  -0.0977
48. CCACGAGG  -0.094
49. ATCAGGGG  -0.0929
50. TAAGACAA  -0.0914
51. GCCATACC  -0.0913
52. ACCCCTTC  -0.0871
53. CTTGCGTC  -0.0859
54. CAACTACC  -0.0852
55. GCGACACC  -0.0851
56. ATTCTTAA  -0.081
57. GGGCGTTA  -0.08
58. CATAATTA  -0.0778
59. TCCTTCAA  -0.0748
60. GTATGCTA  -0.0709
61. TAAAAGGA  -0.0678
62. GCTGCAAC  -0.0643
63. AACCTTCT  -0.0642
64. AGATCTGA  -0.0628
65. ACGATGTG  -0.0589
66. GTAAGAAC  -0.0573
67. CAGCGAAC  -0.0505
68. GACGGTGA  -0.0501
69. CGCGTGTA  -0.0492
70. CTTCCCAC  -0.0487
71. AACATTTC  -0.0476
72. CGTAGAGC  -0.0444
73. GCCAGCAC  -0.0443
74. ACAGCGCA  -0.041
75. GGCGAGGA  -0.04
76. ATGTGGTA  -0.0392
77. CGTTAGAG  -0.0371
78. AGAAGGGC  -0.0354
79. AAGTAGCC  -0.0354
80. ATGATTTA  -0.0349
81. GGCTCTAC  -0.0317
82. GTTAGGAA  -0.0285
83. GACGTGGA  -0.0258
84. AGCGTCGC  -0.0207
85. TCAACGCA  -0.0152
86. CGTTGCCA  -0.0147
87. CCATCAGG  -0.0111
88. ATTAGCAC  -0.0101
89. AGGGCAAA  -0.00116
90. AAACTGTA  0.00412
91. GCTATCCA  0.00502
92. GCGCAATA  0.00596
93. ATGTGAAT  0.0094
94. GGGCTGAA  0.0102
95. TCGACGAA  0.0119
96. AAATATAA  0.0139
97. GGACTATA  0.0155
98. AGAACTAA  0.016
99. ACACCGAC  0.0164
100. AAACCGAG  0.026
101. CCAAGCGC  0.0275
102. AACGCAGA  0.0362
103. CACCACAA  0.0367
104. CGTCCACA  0.0377
105. ACCTCCAC  0.0419
106. CATGAAAG  0.0423
107. GAGCCGCA  0.044
108. GGCACATA  0.0447
109. GGTAATCA  0.0535
110. GCATAATA  0.0537
111. GAGGACAC  0.0582
112. TCTGTACA  0.0628
113. GACCCTCC  0.0699
114. GTAATATA  0.0706
115. CGTCTTTA  0.0715
116. CTGTCCAC  0.075
117. GGCAAATA  0.0766
118. AGCGAGGA  0.0797
119. GAATCTGC  0.0825
120. GGACTGCC  0.0829
121. AGTTTTTC  0.0835
122. ACTGATCT  0.0846
123. GTGTCCCA  0.0876
124. CCGCTAGG  0.0934
125. CACACACG  0.0957
126. CGATTTTC  0.0993
127. CGAATTGC  0.102
128. ATCGATTC  0.109
129. CGAGCGCA  0.128
130. ATGACACG  0.133
131. CGGACTAG  0.139
132. CGTGGACC  0.14
133. GCAACCAA  0.141
134. GCGGCAAC  0.145
135. AGGTACCG  0.146
136. GCGAATTA  0.152
137. AAACGGCG  0.159
138. ACGCGTCG  0.166
139. ATATAAGG  0.167
140. AAATCCAT  0.17
141. ATCGGCTG  0.175
142. CATCGCCG  0.184
143. GCGCAAAC  0.189
144. CCGGGCGC  0.202
145. ACGGGTTC  0.202
146. CCGCCGCA  0.202
147. CCACCGGC  0.204
148. GGTGGGGA  0.206
149. CGGGCACG  0.215
150. AGCGGAGC  0.216
151. ATCGGGTC  0.222
152. GGAACACC  0.224
153. ATGTGTTC  0.228
154. ATCGACGG  0.229
155. CCGACTCC  0.229
156. ATACGGAT  0.241
157. ATGCCCGC  0.242
158. GTCCGACA  0.243
159. CCGACCGA  0.251
160. CATCGGGA  0.263
161. AGGACGGA  0.269
162. CCGGGCGA  0.291
163. CGGACACC  0.295
164. CTCCGAGC  0.296
165. CGCACCCG  0.313
166. ATCCGGCG  0.323
167. CCCGGATA  0.34
168. CGGATCAA  0.356
169. CATACGGA  0.359
170. CCGGGAAC  0.362
171. TCGCGGAA  0.404
172. TCCGGAAA  0.466
